Test results as given in ChEMBL document CHEMBL4888484, “Replenishing the malaria drug discovery pipeline: Screening and hit evaluation of the MMV Hit Generation Library 1 (HGL1) against asexual blood stage Plasmodium falciparum ,using a nano luciferase reporter read-out” (2022).
The whole screen tested about 4,800 compounds, of which about 420 (8.8%) showed an effect of 50% or more. The list shows a part of the results.

test system: Plasmodium falciparum; assay: Confirmatory screen in NF54 nanoGlo assay, in single point, at 2uM, 72h; format: functional, Erythrocyte; conditions: timepoint 72 hour

In order of falling “% Inhibition” value:
1. CN1CC[C@]2(CCN(c3ccnc4ccsc34)C2)C1  99%
2. O=S(=O)(NC12CCCC1CNC2)c1onc(C2CC2)c1Cl (centres undefined)  95%
3. O=C(c1ccccc1)c1cc(Cl)ccc1NC(=O)[C@H]1CC(=O)N(c2ccc(F)cc2)C1  85%
4. C=CCCC(CN1C[C@H]2CC=CC[C@H]2C1)Oc1ncc(F)cn1 (some centres undefined)  77%
5. CCC(CC)c1cc([C@H]2CN3CC[C@H]2C[C@@H]3CNS(=O)(=O)Cc2ccccc2)nc(-c2ccncc2)n1  63%
6. Cc1ccc2c(c1)CCCN2C(=O)CN1CC=C(c2cnn(C)c2)CC1  43%
7. CC(C)N1C(=O)NC(=O)C2(Cc3ccccc3N3CCN(Cc4ccccc4)CC32)C1=O (centres undefined)  38%
8. COc1ccc(-c2csc(-n3cc(C4=CCN(CCO)CC4)cn3)n2)cc1  30%
9. C=CCN(C)C[C@H]1CN2CC[C@H]1C[C@@H]2CNC(=O)Nc1ccc(OC(F)(F)F)cc1  27%
10. CCC(CC)c1cc([C@H]2CN3CC[C@H]2C[C@@H]3CO)nc(-c2ccncc2)n1  26%
11. C[N+]12CCC(CC1)[C@@H](C(O)(c1cccc(Cl)c1)c1cccc(Cl)c1)C2  24%
12. O=C(Cc1cnc2ccccn12)N1C[C@H]2CC[C@@H](C1)N(Cc1ccccn1)C2  20%
13. O=C(NC[C@H]1C[C@@H]2CC[N@]1C[C@@H]2CN1CCC(Cc2ccccc2)CC1)Nc1ccccc1  17%
14. CN(C)C(=O)Oc1cccc2ccc(CN3CCC(N4CCN(c5ccc(C(F)(F)F)cn5)CC4)CC3)nc12  15%
15. COc1cc(OCC(=O)N2CCN([C@@H](C)Cc3ccccc3)CC2)cc(OC)c1OC  8%
16. COC(=O)C(O)(c1ccc2c(c1)C(O)(C(F)(F)F)C(=O)N2C(C)C)C(F)(F)F (centres undefined)  8%
17. COC(=O)CNc1cc(C)c([C@@](O)(C(=O)OC)C(F)(F)F)cc1OC  8%
18. Nc1ccc(N2CCN3CCC[C@H]3C2)cc1  8%
19. O=C1CCN(C(=O)c2ccc(F)c(Cl)c2)CC1  8%
20. O=C(NCc1ccc(Br)cn1)[C@H]1NCC12CCCC2  7%
21. O[C@@]1(Cc2ccccc2)CN2CCC1CC2  7%
22. Cc1ccc(C(O)(c2ccc(C)c(C)c2)[C@H]2C[N@]3CC[C@@H]2CC3)cc1C  6%
23. Cn1nc(OC(=O)Nc2ccccc2)cc1C(F)(F)F  6%
24. CCOc1ccccc1NC(=O)c1cn(Cc2ccc(N)cc2)cn1  5%
25. CC(C)(C)NC(=O)C1CC2CCCCC2CN1 (centres undefined)  5%
26. CCN(CC)CCC1C(=O)N(c2ccccc2)C(=O)N(c2ccccc2)C1=O  4%
27. Cc1c(C(=O)N2CCC3(CC2)OCCO3)oc2ccc3c(c12)[C@@H](O)CC1(CCCCC1)O3  4%
28. C[C@@H]1N=C(c2ccccc2)c2cc(Cl)ccc2N(CC(=O)Nc2cccc(C(F)(F)F)c2)C1=O  4%
29. O=C1N(c2ccccc2)C(=O)C2(Cc3cc(C(F)(F)F)ccc3N3CCC(c4ccccc4)CC32)C(=O)N1c1ccccc1 (centres undefined)  4%
30. CCn1nccc1CNCCc1ccccc1  4%
31. CCN(CC)C(=O)Oc1cc2nnnn2nc1-c1ccccc1  3%
32. C[C@@H](Cc1ccc(O)cc1)NCc1cc[nH]n1  3%
33. CCC(CC)c1cc([C@H]2CN3CC[C@H]2C[C@@H]3CNC(=O)Cc2cccs2)nc(-c2ccncc2)n1  3%
34. FC1(F)C[C@@H](COc2cccnc2)N(C2CCCCC2)C1  3%
35. O=C1CO[C@H]2CCN(Cc3cn4ccc(Br)cc4n3)C[C@@H]2N1  1%
36. CCCC(=O)N(C1=CC2CCC(C1)N2C)c1ccccc1 (centres undefined)  1%
37. O=c1c2cc(Cl)ccc2nc(-c2cccnc2)n1-c1ccc(Br)cc1  0%
38. CN1CCC(N(C)C2CCCCC2N(C)C(=O)Cc2ccc(O)cc2)CC1 (centres undefined)  -1%
39. Cc1nn(C)cc1/C=C1\CC2C3CCC4CC(O)CCC4(C)C3CCC2(C)C1O (centres undefined)  -2%
40. CNc1snc(C)c1C(=O)N1CCC(C(=O)OC)(c2ccccc2)CC1  -2%
41. CCN1CCC[C@H](NC(C2CCC2)C2CCC2)C1  -3%
42. Cc1ccc(C2CC(c3cccnc3)Nc3ncnn32)cc1 (centres undefined)  -4%
43. CCn1cnc2c(N3C4CCC3C(C(=O)OC(C)(C)C)C4)ncnc21 (centres undefined)  -4%
44. COCCn1ccc(C(=O)N[C@H]2CCc3nc(C(C)C)nn3C2)n1  -4%
45. c1ccc2c(CCNC3(c4nnnn4C4CCCCC4)CCCCC3)c[nH]c2c1  -4%
46. CN1CC2(CN(Cc3cnc4ccc(Cl)cn34)C2)OC1=O  -4%
47. CN1CCC2(CC1)CNc1ccccc12  -5%
48. CN(C)[C@@H](Cn1c(=O)[nH]c2ccccc2c1=O)c1ccco1  -7%
49. CC1CNCC(C)N1Cc1csc(C2CC2)n1 (centres undefined)  -8%
50. Clc1ccc(C2CC(c3cccnc3)Nc3ncnn32)cc1 (centres undefined)  -9%
51. Cc1ccc(CN2CC(=O)N(C)CC23CCCCC3)nc1  -9%
52. CC(=O)N1N=C(c2cccnc2)O[C@H]1c1ccc(F)cc1  -10%
53. CN1CCc2nc3ccc(F)cc3c(C(N)=O)c2C1  -10%
54. Clc1ccc(C2CC(c3cccnc3)Nc3nnnn32)cc1 (centres undefined)  -10%
55. CCOc1ccccc1N1C(=O)NC(=O)[C@@]2(Cc3cc(C)ccc3N(C)C2)C1=O  -10%
56. C=CC1CN2CCC1CC2C12Nc3ccccc3C1(O)CCO2 (centres undefined)  -11%
57. CCc1nsc(N2CCC3CCC(C2)N3C)n1 (centres undefined)  -12%
58. CC[C@H](O)c1c[nH]c(C(=O)C(Cl)(Cl)Cl)c1  -12%
59. CC(C)c1nc(CC(=O)N2CCN(Cc3nnc4n3CCCCC4)CC2)cs1  -12%
60. COC(=O)c1cc(OC)cc2[nH]c(=O)oc12  -13%
61. O=C1NC(=O)C2(Cc3cc(C(F)(F)F)ccc3N3CCCCC32)C(=O)N1c1ccccc1 (centres undefined)  -15%
62. Cn1cc(Br)cc1C(=O)C(Cl)(Cl)Cl  -16%
63. O=c1[nH]c2cc(NS(=O)(=O)c3ccc(C4CCCCC4)cc3)ccc2o1  -17%
64. CCC1(CC)C(=O)N(CN2CCCC2=O)C(=O)N(CN2CCCC2=O)C1=O  -17%
